Assay results published in the supplement of paper PMC3334620.
In all, about 33,000 sequences were measured (“E-score (-0.5 to 0.5)”: median about -0.035, highest 2% from about 0.35 on). The list shows a part of the results.

Target: T1, Pdr3 (UniProt P33200)
T1 sequence: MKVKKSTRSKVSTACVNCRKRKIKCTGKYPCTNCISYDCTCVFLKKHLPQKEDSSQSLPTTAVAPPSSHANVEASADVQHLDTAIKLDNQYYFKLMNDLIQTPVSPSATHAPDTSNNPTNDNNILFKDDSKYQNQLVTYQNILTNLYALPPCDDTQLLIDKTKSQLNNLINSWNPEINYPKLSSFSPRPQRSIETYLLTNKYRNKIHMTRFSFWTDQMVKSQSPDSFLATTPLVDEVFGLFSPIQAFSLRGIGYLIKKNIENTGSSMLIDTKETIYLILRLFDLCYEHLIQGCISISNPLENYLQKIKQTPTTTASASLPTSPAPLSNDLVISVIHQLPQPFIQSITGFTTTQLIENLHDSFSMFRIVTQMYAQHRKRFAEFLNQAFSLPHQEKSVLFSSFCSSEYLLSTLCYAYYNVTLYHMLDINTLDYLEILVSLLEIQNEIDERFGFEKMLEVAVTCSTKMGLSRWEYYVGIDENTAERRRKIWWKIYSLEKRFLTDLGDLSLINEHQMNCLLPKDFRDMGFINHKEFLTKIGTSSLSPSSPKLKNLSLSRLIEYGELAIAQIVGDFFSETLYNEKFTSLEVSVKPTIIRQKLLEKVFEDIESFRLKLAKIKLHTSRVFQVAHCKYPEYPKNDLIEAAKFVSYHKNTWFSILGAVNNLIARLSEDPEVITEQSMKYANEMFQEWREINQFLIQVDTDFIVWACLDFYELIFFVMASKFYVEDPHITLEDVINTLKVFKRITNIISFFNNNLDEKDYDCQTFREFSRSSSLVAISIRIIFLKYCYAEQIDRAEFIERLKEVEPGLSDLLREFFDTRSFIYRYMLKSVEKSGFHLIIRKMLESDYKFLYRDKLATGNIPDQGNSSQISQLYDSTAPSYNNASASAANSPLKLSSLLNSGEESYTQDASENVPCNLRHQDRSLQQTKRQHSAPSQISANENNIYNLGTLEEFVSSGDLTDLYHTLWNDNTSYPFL
Assay: PBM E-score (8-mer binding enrichment) (E-score (-0.5 to 0.5)); higher = stronger / more preferred TF binding; most listed sequences are background and not binding sites
Conditions: protein concentration: 200 nM; construct: GST-full length
Summary of the method: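 The E-score, a modified Wilcoxon-Mann-Whitney statistic, was computed by the Universal PBM Analysis Suite for every ungapped eight-base word pooled with its reverse complement. Scans behind it were normalised with masliner after bound GST-tagged yeast transcription factors were detected with fluorescent anti-GST. The proteins, at about 100-200 nM, had been applied to universal all-10-mer Agilent arrays made double-stranded by primer extension.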

Sequence	PBM E-score
CAGTTTGC	-0.0283
CATAAAGG	-0.0331
CCTCCTAA	-0.307
CAGTCTCC	0.0366
ATTGAGCC	0.022
TATAAGGA	-0.0083
TAAGTAGA	-0.144
CACCTAAG	-0.137
GATAGACC	-0.0202
ATAAAAAC	-0.0945
CACCAGGC	-0.115
CGGGCCAG	0.135
CTTGGGGC	0.0478
CGTAAGCA	-0.23
CAGTCCAG	-0.25
AGATAAAC	0.011
ACTGGACC	0.0412
GAATGTGC	-0.0536
ATCATGAA	-0.03
CAGCGCAA	0.011
AAGACATG	-0.319
GGCCCAAA	0.0895

Sequence	PBM E-score
GACCCCAA	-0.0258
ATGAGGGA	-0.101
AGATGTTG	-0.0537
AGTTTAAA	0.102
AGGTCGGG	0.0139
GCAGAAGC	-0.0375
GACGCTCA	-0.0908
ACAGTTAT	-0.0775
AGCTAGCA	-0.161
AGCCTCTC	-0.138
CCACACCG	0.126
CAGCAGCG	-0.0164
CCTGCGAC	-0.182
AATGCAGT	-0.109
CCATGTGC	-0.0214
AGCCAGGG	-0.263
ACTGGATG	-0.178
ATAAAATC	0.0481
ACGAGGTG	-0.0248
AGTCACTA	-0.0771
GCCCGTTA	-0.0259
CCCCCATA	-0.309

Sequence	PBM E-score
ATATGCTG	-0.159
CAAGATGC	0.0992
GCAATACA	0.146
CAAGTATC	-0.0867
ACATCGCA	-0.0583
GCTTCGTA	-0.282
CATCAGGC	-0.111
ATAGGTTG	-0.198
ACCACGCT	-0.133
GAGAGTAA	0.157
ACAATGTA	-0.0513
TCACATAA	-0.0593
ATCGTTAC	-0.116
GCCCGAGC	0.164
AGCACGTA	-0.0777
GCCCCTAA	-0.0721
CAGTGTGG	-0.115
CAAACTGC	-0.0535
ACGCGTAC	-0.126
GATACGCC	0.163
CGCATTAG	-0.159
CTTACGAC	-0.192

Sequence	PBM E-score
AAAGTCAG	-0.0797
AAAACAAG	-0.0753
CGTGCGAG	0.158
ACGGGCGC	0.224
AATTAACT	0.0213
AAGCGTAT	-0.0784
AAGCGCTA	0.0554
CAGCCTAC	-0.0904
CGCGGGCA	0.397
CCTCGCCG	0.152
CTCTACGC	-0.19
GTGCTAGA	-0.274
GGAAAAAC	0.201
GGCATTCA	0.00396
GCAGTGAC	-0.022
CACGCGTA	-0.118
AATGCTGC	-0.138
CTGTACCA	-0.15
ATGACGTG	-0.0975
ACGAAGCC	0.0219
